Results from US20260028391A1.

Biological target: fusion glycoprotein of the RSV used in the neutralization assay of Example 1 (respiratory syncytial virus (strain not stated))
Assay: cell-based or functional assay

RSV Neutralization - IC50: 0.5 ng/mL
B1: MPK202 (antibody, V domains shown)
VH: EVQLVQSGAEVKKTGASVKVSCKVFGDTLTELSMHWVRQAPGKGLEWMGGFHREEGETIYAQKFQGRVTMTEDTSSDTAYMELSSLRSDDTAMYYCATLVDIVVTTAGAGANHYWGQGTMVTVSS
VL: [about 100 residues not shown]FTFGGGTKVEIK
